Data from article PMC3287010, “Pharmacokinetic Study of Di-Phenyl-Di-(2,4-Difluobenzohydroxamato)Tin(IV): Novel Metal-Based Complex with Promising Antitumor Potential” (Bioinorganic Chemistry and Applications, 2012).

Experiment: Pharmacokinetic study in rats after single intravenous administration (HPLC-UV plasma determination, two-compartment model, 3p97 software)
Format: in vivo, Wistar albino rats
Set-up: unit not given here
Conditions: i.v., mean ± SD, n = 6
Experimental: Laboratory bred adult Wistar albino rats (200–250 g), which were supplied by the Animal Research Center at Shanxi Medical University (Taiyuan, Shanxi Province, China), were housed at 25 ± 2°C in a well-ventilated animal house under 12 : 12 h light dark cycle. The animals drank sterilized drinking water, and standard chow diet was supplied ad libitum to each cage. The animal experiments were performed in accordance with the ARVO Statement for the Use of Animals in Ophthalmic and Vision Research and were approved by the Animal Ethics Committee of Shanxi Medical University.
HPLC analysis was carried out using a Waters 2695 HPLC system (Waters Associates, Milford, MA) which consisted of a photodiode array detector, an autosampler, and a degasser. The apparatus was interfaced to a DELL PC compatible computer using Empower Pro software for data acquisition. The sensitivity was 0.2 AUFS. The autosampler was cooled to 10°C. The column was maintained at room temperature. Chromatographic separation of DPDFT and the I.S. was achieved on a Diamonsil C18 column (250 mm × 4.6 mm, 5 μm) from Dikma Technologies (Beijing, China) protected by a SHIMADZU LC guard column at 25°C. The mobile phase for HPLC analysis consisted of phosphoric acid in water (solvent A)/methanol (solvent B) (30 : 70, V/V, pH 3.0) with a flow rate of 0.8 mL·min^−1. A sample volume of 20 μL was injected. Prior to use, the mobile phase was filtered through a 0.45 μm hydrophilic membrane filter. The photodiode array detector was set at a wavelength of 228 nm at room temperature. […]
Blood samples collected from rat blood plasma were immediately transferred to 1.5 mL heparinized microcentrifuge tubes from fossa orbitalis of rats, and then processed for plasma by centrifugation. […] All harvested samples stored at −4°C were brought to room temperature before use and analyzed within one week. […]

With `O=C(N[O][Sn]([O]NC(=O)c1ccc(F)cc1F)([c]1ccccc1)[c]1ccccc1)c1ccc(F)cc1F` [DPDFT, Di-phenyl-di-(2,4-difluobenzohydroxamato)tin(IV)] the AUC (7.5 mg·kg^−1 (low)) was 7.56 ± 1.02 [table] and 7.56 [text], the AUC (15 mg·kg^−1 (middle)) was 37.15 ± 3.06 [table] and 37.15 [text] and the AUC (30 mg·kg^−1 (high)) was 81.25 ± 15.3 [table] and 81.25 [text].

Certain results were filed several times, with different values. The list is limited to them. There may be further records. Values that stand side by side appear to be repeats (runs, samples, wells or individuals).
